Patent US7361680B2, “Indole compounds useful for the treatment of cancer” (The Regents of the University of California, priority 1999, dated 2008)

Each compound was assayed on PPAR-γ (assay: PPAR-γ reporter gene (luciferase) assay in transfected RAW264.7 cells). Conditions: 24 hours, FIG. 13.
Assay type: cell-based

SMILES	activation of a PPAR-γ reporter gene construct (luciferase activity)
CCc1cccc2c3c([nH]c12)[C@](CC)(CC(=O)O)OCC3 [S-etodolac]	activated
CCc1cccc2c3c([nH]c12)[C@@](CC)(CC(=O)O)OCC3 [R-etodolac]	activated

What follows are compounds tested on primary CLL cells (assay: Flow cytometry apoptosis assay (DiOC6/PI), primary CLL cells). Conditions: Homo sapiens, CLL cell, 48 hours, tested at 100, 250, 500, 750 μM.
Assay type: cell-based

SMILES	EC50
CCc1cccc2c3c([nH]c12)C(CC)(CCOC)OCC3 (stereo not shown) [Compound 2, 1,8-Diethyl-1-(2-methoxyethyl)-1,3,4,9-tetrahydropyrano[3,4-b]indole]	250 to 500 µM
CCc1cccc2c3c([nH]c12)C(CC)(CC(C)O)OCC3 (stereo not shown) [Compound 12, 1-(1,8-Diethyl-1,3,4,9-tetrahydropyrano[3,4-b]indol-1-yl)-propan-2-ol]	100 to 250 µM
CCc1cccc2c3c([nH]c12)C(CC)(CC=N)OCC3 (stereo not shown) [Compound 7, 2-(1,8-Diethyl-1,3,4,9-tetrahydropyrano[3,4-b]indol-yl)-ethylideneamine]	250 to 500 µM
CCc1cccc2c3c([nH]c12)[C@@](CC)(CC(=O)O)OCC3 [R-etodolac]	100 to 250 µM
CCc1cccc2c3c([nH]c12)C(CC)(CCOCSC)OCC3 (stereo not shown) [Compound 9, 1,8-Diethyl-1-(2-methylsufanylmethoxyethyl)-1,3,4,9-tetrahydropyrano[3,4-b]indole]	~250 µM
CCc1cccc2c3c([nH]c12)C(CC)(CC)OCC3 [Compound 5, 1,1,8-Triethyl-1,3,4,9-tetrahydropyrano[3,4-b]indole]	250 to 500 µM
CCc1cccc2c3c([nH]c12)C(CC)(CC(N)=O)OCC3 (stereo not shown) [Compound 6, 2-(1,8-Diethyl-1,3,4,9-tetrahydropyrano[3,4-b]indol-1-yl)-acetamide]	100 to 250 µM
CCc1cccc2c3c([nH]c12)C(CC)(CC(C)=O)OCC3 (stereo not shown) [Compound 13, 1-(1,8-Diethyl-1,3,4,9-tetrahydropyrano[3,4-b]indol-1-yl)-propan-2-one]	250 to 500 µM
CCc1cccc2c3c([nH]c12)C(CC)(CCCl)OCC3 (stereo not shown) [Compound 4, 1-(2-Chloroethyl)-1,8-diethyl-1,3,4,9-tetrahydropyrano[3,4-b]indole]	< 100 µM
CCc1cccc2c3c([nH]c12)C(CC)(CC=O)OCC3 (stereo not shown) [Compound 8, (1,8-Diethyl-1,3,4,9-tetrahydropyrano[3,4-b]indol-1-yl)-acetaldehyde]	< 100 µM
CCc1cccc2c3c([nH]c12)C(CC)(CCF)OCC3 (stereo not shown) [Compound 3, 1,8-Diethyl-1-(2-fluoroethyl)-1,3,4,9-tetrahydropyrano[3,4-b]indole]	250 to 500 µM
CCc1cccc2c3c([nH]c12)C(CC)(CCO)OCC3 (stereo not shown) [Compound 1, 2-(1,8-Diethyl-1,3,4,9-tetrahydropyrano[3,4-b]indol-1-yl)-ethanol]	100 to 250 µM
CCc1cccc2c3c([nH]c12)C(CC)(CCOC(C)=O)OCC3 (stereo not shown) [Compound 10, Acetic acid-2-(1,8-diethyl-1,3,4,9-tetrahydropyrano[3,4-b]indol-1-yl)-ethyl ester]	250 to 500 µM
CCc1cccc2c3c([nH]c12)C(CC)(CC(O)O)OCC3 (stereo not shown) [Compound 11, 2-(1,8-Diethyl-1,3,4,9-tetrahydropyrano[3,4-b]indol-1-yl)-ethane-1,1-diol]	250 to 500 µM
